From ChEMBL document CHEMBL4888484, “Replenishing the malaria drug discovery pipeline: Screening and hit evaluation of the MMV Hit Generation Library 1 (HGL1) against asexual blood stage Plasmodium falciparum ,using a nano luciferase reporter read-out” (2022) come the findings set out here.

The structures appear in SMILES notation. Among all 150,000 compounds or so, about 540 (0.36%) showed an effect of 50% or more. Some of the results follow.

This experiment concerns Plasmodium falciparum. Kind of experiment: Primary screen in NF54 nanoGlo assay, in single point, at 2uM, 72h; a lower Z score goes with more inhibition. It is filed as functional, Erythrocyte. The note with it: timepoint 72 hour.
For `Fc1c(Cl)cccc1OCc1csc([C@@H]2CCCO2)n1`, the “% Inhibition” value is listed as -9% and the Z score amounted to 1.05.
For `CCCN(C(=O)N(C)C)[C@H]1CC(=O)N(C)C1=O` the same measures were -6% and 0.55.
In the case of `O=C(c1cc2ccccc2[nH]1)N(CCN1CCOCC1)C1CCOCC1`, the “% Inhibition” value is recorded as -7% and the Z score was 1.11.
For `Cn1cc(CN2CCN(C(=O)c3nc[nH]n3)CC2)c(-c2ccccc2F)n1` the same measures were 0% and -0.06.
Consider `CCOc1ccc(S(=O)(=O)N2CCN(Cc3nonc3C)CC2)cc1`, for which the “% Inhibition” value is given as -9% and the Z score came to 1.15.
For `COc1ccc(-c2nnc(C(C)=O)n2Nc2ccc(C)cc2)cc1`, the “% Inhibition” value was -6% and the Z score came to 0.86.
Taken in the same sequence, the figures for `CC1(C)C(NC2CCN(CC3CCOC3)CC2)CC1c1ccccc1` (centres undefined) were -7% and 1.01.
Taken in the same sequence, the figures for `COc1ccnc(NC2CCOC(c3ccccc3)C2)n1` (centres undefined) were 0% and 0.04.
For `CCC(=O)N(Cc1ccc(C)cc1)c1ccc(CC(=O)NCC2CC2)cc1`, the “% Inhibition” value is given as -6% and the Z score came out at 0.58.
Regarding `Cc1ccc2nc(-c3ccco3)nc(N[C@@H](C)c3ccccc3)c2c1`, the “% Inhibition” value is given as -13% and the Z score is listed as 1.3.
Regarding `CCCOc1ccc(NS(=O)(=O)c2cccc(-n3cnnn3)c2)cc1OCCC`, the “% Inhibition” value is reported as 2% and the Z score is on record as -0.32.
In the case of `COCC(COC)S(=O)(=O)N[C@@H](C)Cc1c(C)noc1C`, the “% Inhibition” value is -6% and the Z score came out at 0.62.
`CC1CCCCC1NC(=O)C1(C)Cn2c(cc3occc32)C(=O)N1Cc1cccnc1` (centres undefined): the “% Inhibition” value is -5% and the Z score is given as 0.93.
Turning to `CCN1CCCN(Cc2cc3cc(C)ccc3nc2N2CCC[C@H](O)C2)CC1`, the “% Inhibition” value was 10% and the Z score was -1.52.
For `CN1CC[C@@]2(CCC1=O)CN(S(=O)(=O)c1ccccc1C#N)CCN2C` the same measures were 2% and -0.24.
With `NC(=O)[C@@H]1CCCN1CCCC1CCCC1`, the “% Inhibition” value turned out to be 0% and the Z score turned out to be 0.04.
Regarding `O=C(O)c1ccc(COc2ccc(CN3CCCN4CCC[C@H]4C3)cc2)o1`, the “% Inhibition” value is -10% and the Z score is recorded as 1.75.
As for `CC1(C(=O)N2CC3CCCCC3C2)CCCC1` (centres undefined), the “% Inhibition” value is on record as -24% and the Z score was 2.4.
In the case of `CC(C)(C)c1ncc(C(=O)N2CCOCc3ccccc32)cn1`, the “% Inhibition” value is reported as -8% and the Z score was found to be 1.54.
For `COc1ccc(N2C(=O)c3ccccc3[C@@H]2c2cn(C)c3ccccc23)cc1` the same measures were 7% and -0.85.
For the compound `COc1c(C)cc(C)cc1CN1CC[C@H](N2CCN(C)CC2)[C@H](CCCO)C1`, the “% Inhibition” value was -5% and the Z score was 0.47.
For the compound `CCc1n[nH]c(C(=O)N[C@H]2CC[C@@H]3CCC[C@@H]32)c1C`, the “% Inhibition” value is given as -8% and the Z score is 1.46.
Turning to `O=C(NCc1cccs1)c1nn(-c2ccccc2)c2ccccc2c1=O`, the “% Inhibition” value was -6% and the Z score came to 0.82.
Consider `CCc1nccn1CCCNc1ccc(C(C)=O)cn1`, for which the “% Inhibition” value is reported as -1% and the Z score is 0.13.
For `C[C@H](Nc1ccc(-c2cnc(C3CC3)o2)cc1)c1ccc(C(F)F)nc1`, the “% Inhibition” value was -5% and the Z score was 0.94.
Taken in the same sequence, the figures for `CCN(CCC(F)(F)F)C(=O)c1ccc(S(N)(=O)=O)c(C)c1` were 3% and -0.38.
In the case of `CCc1c(C(=O)N2CCC3(CC2)[C@H](O)C[C@@H]3OCCN)csc1C`, the “% Inhibition” value is listed as 4% and the Z score is reported as -0.66.
Regarding `Cc1ccc(-c2nc(C)c([C@H](C)NC(=O)c3nc(=O)[nH][nH]3)s2)cc1`, the “% Inhibition” value was -12% and the Z score was 1.73.
For `COc1ccc(C2(CN[C@@H](C)c3cnn(C)c3)CC2)cc1` the same measures were -11% and 1.55.
Taken in the same sequence, the figures for `CCCCN1CCN(c2cc(-n3ccnc3C)n3nccc3n2)CC1` were -1% and 0.16.
For `CCC[C@H]1CCCCN1C(=O)CNS(=O)(=O)CC` the same measures were -1% and 0.06.
For the compound `COc1nc2c(cc1CNC(=O)c1c(C)cccc1C)C(=O)N(C1CCCC1)C2`, the “% Inhibition” value is -14% and the Z score came to 1.78.
Take `Cc1cccc(NC(=O)N2CCN(C(=O)c3ccc(C)nc3)CC2)c1`: the “% Inhibition” value is reported as 9% and the Z score is given as -1.09.
For `CC(C)c1cc(C(=O)NC[C@@H](C)CCO)on1` the same measures were -1% and 0.17.
On to `CCC(=O)N1CCc2ccc(OCc3ccc(C(=O)Nc4ccc(OC)cc4)o3)cc2[C@@H]1c1cccc(C)c1`, for which the “% Inhibition” value is on record as -13% and the Z score is given as 2.14.
In the case of `O=C(NCCc1nc(-c2ccccc2)no1)C1CCCC1`, the “% Inhibition” value was -4% and the Z score was 0.46.
In the case of `Cc1cc(N2CCC(CCCc3ccccc3)(C(=O)O)CC2)nc(N)n1`, the “% Inhibition” value is listed as -12% and the Z score was found to be 1.28.
As to `CCn1ncc2ncn(C[C@H]3C[C@@H](OC)C3)c(=O)c21`, the “% Inhibition” value is -14% and the Z score was 1.58.
As for `COc1ccc(-c2cnn3c(C)cc(C)nc23)cc1S(=O)(=O)Nc1cccc(Cl)c1C`, the “% Inhibition” value is on record as -7% and the Z score is reported as 0.69.
For `CCC(CC)CS(=O)(=O)NCc1nc(-c2cccs2)n[nH]1`, the “% Inhibition” value is -4% and the Z score stood at 0.86.
For `CN(C)Cc1cc(C[C@@H]2C[C@H](NC(=O)C3CCC3)C2(C)C)no1`, the “% Inhibition” value is listed as -4% and the Z score came to 0.57.
In the case of `COc1ccc(Cl)cc1NC(=O)Cn1c(=O)c2nnc(C(C)C)n2c2ccccc21`, the “% Inhibition” value was -8% and the Z score was 0.91.
